In PubChem BioAssay AID1508642 (National Center for Advancing Translational Sciences (NCATS), 2021):
In all, about 43,000 compounds went through this assay and about 200 (0.47%) were called active. Another 12% or so got no clear call; they are omitted. Calls come from the whole dose curve; as a rule, active = well fitted cell-killing curve with a large enough effect; inconclusive = small, poorly fitted or top-dose-only effect, or effect the other way; inactive = flat fitted curve, though single readings scatter. The list shows a part of the results.

Assay: Cell viability qHTS assay in S16 Pmp22-F2sN cells; note: nearly all actives have a fitted effect of over 65% in size
Conditions: S16 Pmp22-F2sN Schwann cells viability, CellTiter-Glo, 24 h; series mostly up to 57.5 µM; activity change, negative = cytotoxicity: at the top concentration
Outline: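 Used to flag compounds lowering reporter output through toxicity, this quantitative HTS measures ATP-based CellTiter-Glo luminescence in S16 Pmp22-F2sN Schwann cells after 24 h compound exposure at 37C.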
% is set by controls: 0 for no effect and ±100 for the full control effect.

Q: With `Cc1ccc2c(c1)nc(SCC(O)c1ccc(Br)cc1)n2C` (centres undefined) as the molecule, how does the “activity change, negative = cytotoxicity” value read?
A: Its value is inactive: 6.82%.

Q: Which “activity change, negative = cytotoxicity” value does the source give for `COC(=O)c1ccc(C(=O)OC)c(NC(=O)c2c(-c3ccccc3)c(-c3ccccc3)nn(C)c2=O)c1` here?
A: The value was inactive: 8.24%.

Q: With `COc1ccc(N2CCN(Cc3nc4c(c(=O)[nH]c(=O)n4C)n3Cc3ccccc3)CC2)cc1` as the molecule, how does the “activity change, negative = cytotoxicity” value read?
A: Its value is inactive: 9.28%.

Q: With `Cn1c(=O)c2sccc2n2c(CCC(=O)NCc3ccccc3)nnc12` as the molecule, how does the “activity change, negative = cytotoxicity” value read?
A: The value was inactive: 10.8%.

Q: For `CC(NC(=O)CSc1n[nH]c(-c2ccccc2)n1)c1nc2ccccc2n1C` (centres undefined), which “activity change, negative = cytotoxicity” value is on record?
A: Its value is inactive: 6.86%.

Q: For `Cc1ccc(S(=O)Cc2nc(-c3ccc(C(=O)NC(C)c4ccccc4)cc3)oc2C)cc1` (centres undefined), which “activity change, negative = cytotoxicity” value is on record?
A: Its value is inactive: 0.749%.

Q: Which “activity change, negative = cytotoxicity” value does the source give for `CCCCc1ccc(Nc2ncnc3c2cnn3-c2ccc(C)cc2)cc1` here?
A: Its value is inactive: 17.6%.

Q: For `CCC1CCCCN1C(=O)Cn1c(=O)n(CC2CCC(C(=O)NC)CC2)c(=O)c2sccc21` (centres undefined), which “activity change, negative = cytotoxicity” value is on record?
A: The value was inactive: 10.6%.

Q: With `O=C(Nc1ccc(OC(F)(F)F)cc1)NC1COc2ccccc2C1` (centres undefined) as the molecule, how does the “activity change, negative = cytotoxicity” value read?
A: The value was inactive: 10.6%.

Q: Which “activity change, negative = cytotoxicity” value does the source give for `COc1ccc(C2CC(=O)N(CC(=O)Nc3ccc(C(F)(F)F)cc3)c3ccccc3S2)cc1` (centres undefined) here?
A: Its value is inactive: 4.44%.

Q: With `COc1ccc(C(=O)Nc2ccc3nc(SCC(=O)N4CCOCC4)sc3c2)cc1` as the molecule, how does the “activity change, negative = cytotoxicity” value read?
A: The value was inactive: 8.15%.

Q: With `COC(=O)c1ccc(OC)c(Cn2c(=O)n(-c3ccc(C)cc3)c(=O)c3c2cnn3C)c1` as the molecule, how does the “activity change, negative = cytotoxicity” value read?
A: Its value is inactive: 24.8%.

Q: Which “activity change, negative = cytotoxicity” value does the source give for `Cc1cccc(C)c1NC(=O)CN(C)S(=O)(=O)c1ccc2c(c1)n(C)c(=O)c(=O)n2C` here?
A: The value was inactive: -8.71%.

Q: Which “activity change, negative = cytotoxicity” value does the source give for `CCc1ccc(OCC(=O)NCC(c2ccc(OC)cc2)N2CCOCC2)cc1` (centres undefined) here?
A: The value was inactive: 4.21%.

Q: For `CCSc1nc(=O)c2c(n1C)NC(=O)CC2c1ccc(O)cc1OC` (centres undefined), which “activity change, negative = cytotoxicity” value is on record?
A: The value was inactive: -0.679%.

Q: Which “activity change, negative = cytotoxicity” value does the source give for `COc1ccc(-n2c(=O)c3sc4ccccc4c3n(Cc3ccccc3)c2=O)cc1` here?
A: Its value is inactive: 6.05%.

Q: Which “activity change, negative = cytotoxicity” value does the source give for `Cc1cccc(C(=O)N(Cc2nc(-c3ccc(Cl)cc3)no2)C(C)C)c1` here?
A: Its value is inactive: 0.492%.

Q: With `CC(=O)c1cccc(NC(=O)Cn2c(C)c3cnn(-c4ccccc4)c(=O)c3c2C)c1` as the molecule, how does the “activity change, negative = cytotoxicity” value read?
A: Its value is inactive: -15.5%.

Q: With `CCN(CC)CCNC(=O)c1ccc2c(c1)N(Cc1ccccc1)C(=O)c1ccccc1S2=O` (centres undefined) as the molecule, how does the “activity change, negative = cytotoxicity” value read?
A: The value was inactive: -3.86%.

Q: For `Cc1ccc2c(CNC3CCC(C)CC3)c(C(=O)O)n(Cc3cccc(F)c3)c2c1` (centres undefined), which “activity change, negative = cytotoxicity” value is on record?
A: The value was inactive: 0.311%.

Q: For `COc1cccc(CNC(=O)c2c3c(nc4ccccc24)C(=O)N(C2CCCCC2)C3)c1`, which “activity change, negative = cytotoxicity” value is on record?
A: The value was inactive: -0.135%.

Q: Which “activity change, negative = cytotoxicity” value does the source give for `CCc1nn(CC(=O)NC2CC2)c(=O)c2cc3ccccc3n12` here?
A: Its value is inactive: 7.5%.

Q: For `O=C(Cn1c(=O)nc(-c2ccccc2)c2cc(Cl)ccc21)NCCCc1ccccc1`, which “activity change, negative = cytotoxicity” value is on record?
A: The value was inactive: 25.8%.

Q: With `Cc1sc(NC(=O)COc2ccc(C(C)(C)C)cc2)c(C(=O)OC(C)C)c1C` as the molecule, how does the “activity change, negative = cytotoxicity” value read?
A: Its value is inactive: 1.5%.

Q: Which “activity change, negative = cytotoxicity” value does the source give for `Cc1cc(-c2nc3ccccc3s2)ccc1NC(=O)c1cc(Cl)ccc1Cl` here?
A: Its value is inactive: -17.6%.

Q: Which “activity change, negative = cytotoxicity” value does the source give for `Cc1ccc(-c2noc(C3CC(=O)N(c4ccc5c(c4)OCCO5)C3)n2)cc1` (centres undefined) here?
A: The value was inactive: 1.64%.

Q: With `COc1ccc(CNC(=O)C2CCN(S(=O)(=O)c3cn(C)cn3)CC2)cc1` as the molecule, how does the “activity change, negative = cytotoxicity” value read?
A: The value was inactive: 1.11%.

Q: For `COc1ccc(NC(=O)N(Cc2ccco2)C2CCN(C(C)=O)CC2)c(OC)c1`, which “activity change, negative = cytotoxicity” value is on record?
A: The value was inactive: 11.1%.

Q: For `CCn1cc(C(=O)N2CCN(c3ccccc3)CC2)c(=O)c2cc(S(=O)(=O)N3CCC(C)CC3)ccc21`, which “activity change, negative = cytotoxicity” value is on record?
A: The value was inactive: -3.36%.

Q: With `COc1ccc(C2CC(=O)c3c([nH]c(C(=O)OCCOc4ccccc4)c3C)C2)cc1OC` (centres undefined) as the molecule, how does the “activity change, negative = cytotoxicity” value read?
A: The value was inactive: 2.44%.

Q: Which “activity change, negative = cytotoxicity” value does the source give for `CCOc1ccc(NC(=O)c2cn3c4c(ccc(Cl)c4c2=O)OC(C)C3)cc1` (centres undefined) here?
A: The value was inactive: 2.84%.

Q: For `COc1cccc(CNC(=O)c2cccn2-c2nnc(N3CCCC3)s2)c1`, which “activity change, negative = cytotoxicity” value is on record?
A: The value was inactive: 2.32%.

Q: For `CCN1CCN(C(=O)c2cnn(-c3cccc(C)c3)c2C2CCN(C(=O)OC(C)(C)C)CC2)CC1`, which “activity change, negative = cytotoxicity” value is on record?
A: Its value is inactive: 3.12%.

Q: With `COc1cccc(-c2ccnc3[nH]n(-c4ccccc4)c(=O)c23)c1` as the molecule, how does the “activity change, negative = cytotoxicity” value read?
A: Its value is inactive: 11%.

Q: Which “activity change, negative = cytotoxicity” value does the source give for `Cc1ccc(-n2c(SCC(=O)N3CCC(C)CC3)nc3c([nH]c4ccccc43)c2=O)cc1` here?
A: The value was inactive: 7.76%.

Q: Which “activity change, negative = cytotoxicity” value does the source give for `Cc1ccc(NC(=O)c2ccc(F)c(S(=O)(=O)N3CCc4ccccc4C3)c2)cc1F` here?
A: Its value is inactive: -9.87%.

Q: Which “activity change, negative = cytotoxicity” value does the source give for `COc1ccc(Cl)cc1NC(=O)CSc1cn(CC(=O)N2CCCC2)c2ccccc12` here?
A: The value was inactive: -17.8%.

Q: With `Cc1cc(NC(=O)CN2C(=O)CSc3ccc(S(=O)(=O)N(C)C)cc32)ccc1Br` as the molecule, how does the “activity change, negative = cytotoxicity” value read?
A: The value was inactive: -10.4%.

Q: For `CCOC(=O)c1c(NC(=O)c2nc(SC)ncc2Cl)sc(C)c1C`, which “activity change, negative = cytotoxicity” value is on record?
A: The value was inactive: 4.45%.

Q: For `CSc1ccc(CCNC(=O)c2ccc3c(c2)nc2n3CCOC2)cc1`, which “activity change, negative = cytotoxicity” value is on record?
A: Its value is inactive: 26.1%.

Q: With `Cc1c(Cl)cccc1NC(=O)NCCOCCn1c(=O)oc2ccccc21` as the molecule, how does the “activity change, negative = cytotoxicity” value read?
A: The value was inactive: -21.9%.

Q: For `CCOC(=O)N1CCc2c(sc(NCc3sccc3C)c2C(=O)Nc2ccccc2OCC)C1`, which “activity change, negative = cytotoxicity” value is on record?
A: The value was inactive: -19.5%.

Q: Which “activity change, negative = cytotoxicity” value does the source give for `CCOC(=O)c1ccc(NC(=O)CN2C(=O)CC(c3ccc(C)c(C)c3)=Nc3ccccc32)cc1` here?
A: The value was inactive: -13.7%.

Q: With `CCOc1ccc(CCNC(=O)c2ccc3c(c2)N(Cc2cccc(Cl)c2)C(=O)c2ccccc2S3(=O)=O)cc1OCC` as the molecule, how does the “activity change, negative = cytotoxicity” value read?
A: Its value is inactive: -1.84%.

Q: With `Cn1c(=O)n(CCCc2ccccc2)c(=O)c2c1nc1n2CCN1c1ccccc1` as the molecule, how does the “activity change, negative = cytotoxicity” value read?
A: The value was inactive: 15.8%.

Q: For `CCOC(=O)c1scc(-c2ccc(C)cc2)c1S(=O)(=O)Nc1ccc(F)c(F)c1`, which “activity change, negative = cytotoxicity” value is on record?
A: Its value is inactive: 27.1%.

Q: Which “activity change, negative = cytotoxicity” value does the source give for `COc1ccc2c(c1)c(=O)c(C(=O)c1ccc(Cl)cc1)cn2CC(=O)Nc1ccc2c(c1)OCO2` here?
A: The value was inactive: 18.9%.

Q: For `CCN(Cc1ccccc1)C(=O)CCS(=O)(=O)c1ccc2c(c1)oc(=O)n2C`, which “activity change, negative = cytotoxicity” value is on record?
A: The value was inactive: -12.4%.

Q: With `COCCNc1ccc(-c2nc(-c3cccc(C)c3)no2)cc1[N+](=O)[O-]` as the molecule, how does the “activity change, negative = cytotoxicity” value read?
A: The value was inactive: 7.11%.

Q: Which “activity change, negative = cytotoxicity” value does the source give for `CN1C(=O)c2ccccc2Sc2ccc(NC(=O)COc3ccc(Cl)cc3)cc21` here?
A: The value was inactive: -25.2%.

Q: With `CC1CCCN(C(=O)Cn2c(=O)n(CC3CCC(C(=O)NC(C)C)CC3)c(=O)c3sccc32)C1` (centres undefined) as the molecule, how does the “activity change, negative = cytotoxicity” value read?
A: Its value is inactive: 0.866%.

Q: Which “activity change, negative = cytotoxicity” value does the source give for `Cn1c(-n2cccc2)c(-c2c(-c3ccc(F)cc3)[nH]c3c2c(=O)[nH]c(=O)n3C)c(=O)[nH]c1=O` here?
A: The value was inactive: -5.13%.

Q: For `COc1ccc(CCNC(=O)CSCc2nc(-c3ccc(OC)c(OC)c3)oc2C)cc1OC`, which “activity change, negative = cytotoxicity” value is on record?
A: The value was inactive: -1.76%.

Q: With `COc1cc(OC)c(NC(=O)c2ccc3c(Cl)c4c(nc3c2)CCCC4)cc1Cl` as the molecule, how does the “activity change, negative = cytotoxicity” value read?
A: Its value is inactive: 12.1%.

Q: For `COc1cccc(OC)c1Cn1nnc2c(=O)[nH]c(C3CCN(C(=O)c4ccccc4)CC3)nc21`, which “activity change, negative = cytotoxicity” value is on record?
A: The value was inactive: -19.4%.

Q: With `COc1ccc(-n2ncc3c2ncn2nc(-c4ccc(Cl)cc4Cl)nc32)cc1` as the molecule, how does the “activity change, negative = cytotoxicity” value read?
A: Its value is inactive: 1.2%.

Q: Which “activity change, negative = cytotoxicity” value does the source give for `COc1ccc(NC(=O)C(CC(C)C)NS(=O)(=O)c2ccc3c(c2)oc(=O)n3C)cc1Cl` (centres undefined) here?
A: Its value is inactive: -2.76%.

Q: With `COc1cccc(C2Nc3ccccc3-c3nnc(SCc4ccccc4)nc3O2)c1OC` (centres undefined) as the molecule, how does the “activity change, negative = cytotoxicity” value read?
A: The value was inactive: 5.1%.

Q: With `Cc1ccc(S(=O)(=O)c2nc(-c3ccccc3)oc2SCC(=O)NC2CCCCC2)cc1` as the molecule, how does the “activity change, negative = cytotoxicity” value read?
A: The value was inactive: -20.4%.
